Results reported in article PMC9911399, “Two distinct binding modes provide the RNA-binding protein RbFox with extraordinary sequence specificity”.
Where a chain is given by its changes, count along the chain named. The list shows a part of the results.

T1: RBFOX1 RRM RbFoxmut (Fox-RRM*) (Homo sapiens, UniProt Q9NWB1 109-208, R118D;E147R;N151S;E152T)
T1 sequence: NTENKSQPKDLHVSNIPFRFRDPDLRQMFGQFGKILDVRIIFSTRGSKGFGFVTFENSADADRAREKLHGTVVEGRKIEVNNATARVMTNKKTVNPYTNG

B1: UUGUGCA (DNA:RNA)
RNA: GGGAGACCGGAAUUCAGAUUGUCCUUGUGCAUUAAAUCCCGUCGUAGCCACCA
DNA 1: CAATCTGAATTCCGGTCTCCC
DNA 2: TGGTGGCTACGACGGGATT
B2: CUUUGCU (DNA:RNA)
RNA: B1 RNA with U25C, G27U, A31U
DNA 1: CAATCTGAATTCCGGTCTCCC
DNA 2: TGGTGGCTACGACGGGATT
B3: CAUGAAG (DNA:RNA)
RNA: GGGAGACCGGAAUUCAGAUUGUCCCAUGAAGUUAAAUCCCGUCGUAGCCACCA
DNA 1: CAATCTGAATTCCGGTCTCCC
DNA 2: TGGTGGCTACGACGGGATT
B4: GCUGGCC (DNA:RNA)
RNA: B3 RNA with C25G, A26C, A29G, A30C, G31C
DNA 1: CAATCTGAATTCCGGTCTCCC
DNA 2: TGGTGGCTACGACGGGATT
B5: UAGCUGC (DNA:RNA)
RNA: B1 RNA with U26A, U28C, G29U, C30G, A31C
DNA 1: CAATCTGAATTCCGGTCTCCC
DNA 2: TGGTGGCTACGACGGGATT
B6: UGUCACA (DNA:RNA)
RNA: B1 RNA with U26G, G27U, U28C, G29A
DNA 1: CAATCTGAATTCCGGTCTCCC
DNA 2: TGGTGGCTACGACGGGATT
B7: GCUCGCC (DNA:RNA)
RNA: B1 RNA with U25G, U26C, G27U, U28C, A31C
DNA 1: CAATCTGAATTCCGGTCTCCC
DNA 2: TGGTGGCTACGACGGGATT
B8: UUAGGAA (DNA:RNA)
RNA: B1 RNA with G27A, U28G, C30A
DNA 1: CAATCTGAATTCCGGTCTCCC
DNA 2: TGGTGGCTACGACGGGATT
B9: GGUAUUG (DNA:RNA)
RNA: B3 RNA with C25G, A26G, G28A, A29U, A30U
DNA 1: CAATCTGAATTCCGGTCTCCC
DNA 2: TGGTGGCTACGACGGGATT
B10: UACAAAC (DNA:RNA)
RNA: B3 RNA with C25U, U27C, G28A, G31C
DNA 1: CAATCTGAATTCCGGTCTCCC
DNA 2: TGGTGGCTACGACGGGATT
B11: GUCACAC (DNA:RNA)
RNA: B3 RNA with C25G, A26U, U27C, G28A, A29C, G31C
DNA 1: CAATCTGAATTCCGGTCTCCC
DNA 2: TGGTGGCTACGACGGGATT
B12: GCUUGCA (DNA:RNA)
RNA: B1 RNA with U25G, U26C, G27U
DNA 1: CAATCTGAATTCCGGTCTCCC
DNA 2: TGGTGGCTACGACGGGATT
B13: AUCGUAC (DNA:RNA)
RNA: B3 RNA with C25A, A26U, U27C, A29U, G31C
DNA 1: CAATCTGAATTCCGGTCTCCC
DNA 2: TGGTGGCTACGACGGGATT
B14: UCUCUCG (DNA:RNA)
RNA: B3 RNA with C25U, A26C, G28C, A29U, A30C
DNA 1: CAATCTGAATTCCGGTCTCCC
DNA 2: TGGTGGCTACGACGGGATT
B15: UAUUCCC (DNA:RNA)
RNA: B1 RNA with U26A, G27U, G29C, A31C
DNA 1: CAATCTGAATTCCGGTCTCCC
DNA 2: TGGTGGCTACGACGGGATT
B16: UGUAUGU (DNA:RNA)
RNA: B3 RNA with C25U, A26G, G28A, A29U, A30G, G31U
DNA 1: CAATCTGAATTCCGGTCTCCC
DNA 2: TGGTGGCTACGACGGGATT
B17: CUCCAAG (DNA:RNA)
RNA: B3 RNA with A26U, U27C, G28C
DNA 1: CAATCTGAATTCCGGTCTCCC
DNA 2: TGGTGGCTACGACGGGATT
B18: ACAGUUU (DNA:RNA)
RNA: B3 RNA with C25A, A26C, U27A, A29U, A30U, G31U
DNA 1: CAATCTGAATTCCGGTCTCCC
DNA 2: TGGTGGCTACGACGGGATT
B19: UCACAUC (DNA:RNA)
RNA: B3 RNA with C25U, A26C, U27A, G28C, A30U, G31C
DNA 1: CAATCTGAATTCCGGTCTCCC
DNA 2: TGGTGGCTACGACGGGATT
B20: UUUACUA (DNA:RNA)
RNA: B1 RNA with G27U, U28A, G29C, C30U
DNA 1: CAATCTGAATTCCGGTCTCCC
DNA 2: TGGTGGCTACGACGGGATT

What follows are binders tested against T1, RBFOX1 RRM RbFoxmut (Fox-RRM*) (assay: EMSA; HiTS-Eq, 1 nM pool, 10 min; buffer printed only for the single-RNA assays: 10 mM Tris pH 7.5, 150 mM NaCl, 3.4 mM EDTA, 0.001% NP-40, 30 C). Conditions: tags: His6 N-terminal (pET28a); label: 5' 32P.
Summary of the method: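 Purified wild-type or mutant RbFox RRM at increasing concentrations was equilibrated with 1 nM of 5′-radiolabelled RNA carrying 7 randomized nucleotides for 10 min in 50 µL. Unbound RNA was separated by 8% native PAGE and sequenced. Relative association constants came from read-count changes of each RNA species compared with the control reaction, normalised to the cognate motif.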

Binder | binding signal
B1 | 0.212 KA relative to UGCAUGU
B2 | 0.11 KA relative to UGCAUGU
B3 | 0.133 KA relative to UGCAUGU
B4 | 0.202 KA relative to UGCAUGU
B5 | 0.0952 KA relative to UGCAUGU
B6 | 0.0787 KA relative to UGCAUGU
B7 | 0.0931 KA relative to UGCAUGU
B8 | 0.0866 KA relative to UGCAUGU
B9 | 0.466 KA relative to UGCAUGU
B10 | 0.0542 KA relative to UGCAUGU
B11 | 0.0993 KA relative to UGCAUGU
B12 | 0.243 KA relative to UGCAUGU
B13 | 0.139 KA relative to UGCAUGU
B14 | 0.0757 KA relative to UGCAUGU
B15 | 0.0619 KA relative to UGCAUGU
B16 | 0.914 KA relative to UGCAUGU
B17 | 0.112 KA relative to UGCAUGU
B18 | 0.0846 KA relative to UGCAUGU
B19 | 0.0791 KA relative to UGCAUGU
B20 | 0.12 KA relative to UGCAUGU
